Measurements taken from ChEMBL document CHEMBL4888484, “Replenishing the malaria drug discovery pipeline: Screening and hit evaluation of the MMV Hit Generation Library 1 (HGL1) against asexual blood stage Plasmodium falciparum ,using a nano luciferase reporter read-out” (2022).
Out of some 150,000 compounds screened, about 540 (0.36%) showed an effect of 50% or more. This is one part of the list.

What follows are compounds tested on Plasmodium falciparum (assay: Primary screen in NF54 nanoGlo assay, in single point, at 2uM, 72h; a lower Z score goes with more inhibition). Conditions: timepoint 72 hour.
Type: functional, Erythrocyte

Compound | % Inhibition | Z score
CC[C@H](C)[C@H](N)C(=O)NCc1noc(C(N)=O)n1 | -10% | 1.03
Cc1cnc(NCc2csc(CNC(=O)c3ccccc3)n2)nc1 | 4% | -0.43
COc1ccccc1-c1nc2ccc(-c3cc(C)c(OC)c(C)c3)cc2o1 | -5% | 0.89
C[C@@H](C(=O)N1CCc2onc(-c3cccc4ccccc34)c2C1)n1ccnc1 | -6% | 0.71
CN(C)C[C@]12CCN(S(=O)(=O)c3ccc4c(c3)CCC4)C[C@H]1CN(C(=O)N(C)C)C2 | 8% | -1.5
Cc1cnn(C2CCN(S(=O)(=O)C3(C)CC3)CC2)c1 | -18% | 3.19
CC(OC1CCCCCC1)C(=O)N[C@H](CO)C(C)C (stereo partly specified) | -5% | 0.6
Nc1ccccc1OCCCc1ccccc1 | -14% | 2.31
COc1ccc(-c2nc(-c3cccc(-c4nnc(N)o4)c3)sc2C)c(OC)c1 | 37% | -1.16
C[C@H](O)c1nnnn1Cc1sc2ccccc2c1Cl | 6% | -0.8
Cc1ccc2c(c1)c(=O)c(C(=O)N(CCOc1ccccc1)C[C@H]1CCCO1)cn2C | -10% | 1.36
CCn1cc(C2CCN(C(=O)NCc3ccncc3C)CC2)cn1 | -2% | 0.3
O=S(=O)(NCC[C@H](O)c1ccoc1)C1CC1 | -12% | 1.5
COc1cc(-c2noc([C@H]3CCCOCC3)n2)ncn1 | -1% | 0.09
CN(Cc1ccccc1)C(=O)C1CC(=O)CC1C(=O)N(C)Cc1ccccc1 (stereo unspecified) | -1% | 0.09
O=C(CCc1ccc(S(=O)(=O)N2CCCC2)cc1)Nc1cccc(S(=O)(=O)N2CCCC2)c1 | -14% | 2.02
Cc1occc1C(=O)NC[C@H]1CCS(=O)(=O)C1 | -9% | 1.4
O=S(=O)(Nc1cc(-n2nnnc2C2CC2)ccc1F)c1ccc(C2CCCCC2)cc1 | -5% | 0.65
Cc1cc(NC(=O)Cc2c(C)nn(C)c2C)no1 | 0% | 0.07
CCCc1nccn1-c1cnn2cccnc12 | 13% | -1.75
O=C(COc1ccc2ccccc2c1)Nc1ccc2nccnc2c1 | -8% | 1

Compound | % Inhibition | Z score
Cc1ccccc1Cn1cccc1CNS(=O)(=O)c1ccc(C2CCCCC2)cc1 | -8% | 0.8
Cc1ccc([C@H](C(=O)O)N2CCN(c3cnccn3)CC2)c(C)c1 | -4% | 0.53
COc1ccccc1N1CCN(C(=O)Nc2ccc(N3CCOCC3)cc2C)CC1 | 0% | 0.05
CS(=O)(=O)N1C2CCC1CC(NC(=O)c1cc(Br)ccc1Cl)C2 (stereo unspecified) | -22% | 3.76
COc1ccc2c(=O)c(C#N)c[nH]c2c1 | -2% | 0.18
O=C(C1COc2ccccc2C1)N1CCC(c2cccs2)S(=O)(=O)CC1 (stereo unspecified) | -5% | 0.79
O=C(NC1CCCCC1)c1ccc(Cl)c(NC(=O)C2CCCCC2)c1 | -9% | 1
CC(C)Oc1ccc(C(=O)NC[C@H]2CCCN2c2ncccn2)cc1 | 5% | -0.56
CNC(=O)CN(C)CC=Cc1ccccc1 | -1% | 0.2
COCCNC(=O)[C@@H](C)[C@@H]1CC[C@@]2(C)CC[C@H](NC(=O)C3CCCCC3)[C@@H](C)[C@@H]2[C@H]1O | -8% | 0.97
CS(=O)(=O)N1CCC[C@H](Cn2nnnc2C=Cc2ccccc2)C1 | 34% | -0.7
O=C(C1CCCC1)N1CC[C@@]2(O)CCN(Cc3nc(C(F)(F)F)no3)C[C@H]2C1 | 10% | -1.32
C[C@@H](C1CC1)N(CCC#N)Cc1ccc2ccccc2n1 | -7% | 1.17
COc1ccc(CCC(=O)N2CC[C@H](Oc3ncccn3)C2)cc1 | -9% | 1.23
O=C(Nc1cccs1)N(CC(F)(F)F)C1CCOCC1 | -21% | 2.33
CC(C)(O)CCc1ccc(C(=O)N2C[C@@H]3C[C@H]2CN3Cc2ccccc2)cc1 | -3% | 0.54
Cc1nn2c(c1-c1ccc(Cl)c(S(=O)(=O)NCCC(C)C)c1)NC(=O)CCC2=O | 1% | -0.11
CCN1CC[C@@]2(CCC1=O)CN(C(=O)Nc1c(C)cccc1C)CCN2C | -7% | 1.06
O=C(Nc1ccc(O)c(Cl)c1)c1ccnnc1 | -5% | 0.89
Cc1ccc(=O)n(CCC(=O)Nc2cc(F)cc(F)c2)n1 | -5% | 0.94
Cc1cc(C(=O)N2CCN(c3ccc(C(F)(F)F)cc3)CC2)cc(O)n1 | 9% | -1.04

Compound | % Inhibition | Z score
CC(C)c1cnc(CNc2nnc([C@@H]3Cc4ccccc4O3)o2)s1 | 30% | -3.43
Cc1c(C(=O)N[C@@H]2C[C@H]3OCC[C@@H]23)[nH]c2c(F)cccc12 | -12% | 2.45
Cc1cccc(S(=O)(=O)Nc2ccccc2N2CCCN(Cc3ccc(F)cc3)C2=O)c1 | -7% | 1.08
CCN1CCN(c2c(CN(CCC(C)C)S(=O)(=O)c3ccc(C)cc3)c(C)nn2-c2ccccc2)CC1 | -15% | 2.45
C=CCn1cc(CN(C)CC[C@H]2CCCCO2)cn1 | -7% | 0.97
Cc1n[nH]c(C)c1CCCN(C)C1CCN(c2cccc(F)c2)CC1 | 6% | -0.79
COc1ccc(CC(=O)NCc2nccc(N3CCCCC3)n2)cc1 | -7% | 1.14
O=C(c1cccs1)N1CC[C@@]2(CCCN(Cc3ccc(F)c(F)c3)C2=O)C1 | -2% | 0.32
Cn1ncnc1CCNC(=O)c1cnc(-c2cccnc2)nc1 | 1% | -0.18
CC(C)c1cc(C(=O)N2CCC[C@@H]2CO)cc(O)n1 | 0% | 0.07
CC(C)Cc1cc(C(=O)N[C@@H](C)c2nncn2C2CCCC2)on1 | -5% | 0.98
O=C1CC[C@H](NC(=O)c2cc(-c3cccc(C(F)(F)F)c3)ccn2)CCN1 | -10% | 1.89
Cc1ccc(C(=O)N[C@@H](C2CCOCC2)C2(CO)CCC2)o1 | 2% | -0.36
COC(=O)[C@@]1(CO)N[C@@H](c2c(F)ccc(F)c2Cl)[C@H]2C(=O)N(C)C(=O)[C@H]21 | -7% | 1.09
COCCN1CCN2C(=O)[C@H](Cc3ccccc3)N(C(=O)c3ccc(C)s3)C[C@H]2C1=O | -17% | 1.51
CN1CCN(C[C@@H]2CN(C(=O)Cc3ccccc3F)C[C@@H]2CO)CC1 | 7% | -0.64
COc1ccc(CCc2nc(-c3ccc(N4CCCC4)cc3)no2)cc1 | 2% | -0.28
COc1ccc(Cl)cc1NC(=O)Cn1c2c(c(=O)n(C3CCCCC3)c1=O)CCC2 | -9% | 1.62
Cn1cc(-c2ccc(C(=O)N3C[C@H]4CCC[C@H]4C3)o2)cn1 | -20% | 1.99
CN(C)Cc1csc(CN2CCCC23CCN(c2ccccn2)CC3)c1 | -6% | 0.66
CCC(C)CN1C(=O)C(Cc2ccccc2)NC12CCN(C(=O)c1cccc(OC)c1)CC2 (stereo unspecified) | 28% | -3.84

Compound | % Inhibition | Z score
N#CCCC(C#N)CNCC1CN(C2CC2)CCO1 (stereo unspecified) | 0% | -0.02
COc1ccc(C(=O)N2CC[C@@](F)(C(=O)NCc3ccccc3)C2)c(C)c1 | -4% | 0.47
Cc1sc(S(=O)(=O)N2CCCC2)cc1NC(=O)c1cccc(N(C)C)c1 | -4% | 0.45
O=C(c1cncc(O)c1)N1CC2(CCCC2)[C@H]1c1ccccc1 | 5% | -0.67
Cc1[nH]c2ccccc2c1C1(c2c(C)[nH]c3ccccc23)C(=O)Nc2ccc(Cl)cc21 | 9% | -1.06
COC[C@@H]1[C@H](NC(=O)c2cccc(-c3ccccc3OC)c2)[C@H]2CCO[C@H]21 | -2% | 0.39
COc1ccc(CC(=O)Nc2ncnn2C)cc1 | -9% | 1.66
Cc1nc(C(=O)Nc2ccc(N3CCOCC3)nc2)c2n1CCCC2 | -9% | 0.74
O=C1N[C@@H](C2CCCCC2)C(=O)N[C@H]1c1ccccc1 | -9% | 1.35
COC(=O)C1CCCCC1S(=O)(=O)NC1CCOC2(CCCC2)C1 (stereo unspecified) | -7% | 1.14
Cc1ccn(CC(C)NC(=O)c2cn(CC(O)c3cccs3)nn2)n1 (stereo unspecified) | -15% | 2.9
CN(C)C(=O)C1CCCC(NS(=O)(=O)c2ccc3c(c2)OCCO3)C1 (stereo unspecified) | 6% | -0.94
COc1ccc(C2Nc3ccc(C)cc3[C@H]3OCCC[C@@H]23)cc1C (stereo partly specified) | -12% | 1.68
CCOC(=O)c1c(Cl)c2ncc(S(=O)(=O)N(C)C)cc2n1C | -9% | 0.91
C=CCc1c(C)nc(N)nc1NC[C@H]1CCCN(S(C)(=O)=O)C1 | -1% | 0.17
O=C(NCC(=O)N1CCC[C@@]12CCOC2=O)c1cccc(Cl)c1 | 0% | 0.04
C[C@H](OC(=O)c1ccc2[nH]ncc2c1)c1nc2ccccc2n1C(F)F | -12% | 1.24
OCC1(CN2CCCC2)CCN(Cc2ccc(Cl)cc2)CC1 | 2% | -0.36
Cn1ccc(CCNC(=O)[C@H]2CC[C@H](Nc3cnccn3)CC2)n1 | -3% | 0.55
CN(CCCc1nccn1C)c1cc([C@H]2C[C@@H](O)C2)nc(N)n1 | -8% | 1.38
